Experimental data reported in article PMC4336329 (PLoS ONE, 2015).
The whole screen tested about 310,000 compounds, of which about 2,200 (0.71%) showed an effect of 50% or more. Effects have a minus sign here. Some of the results follow.

target: human ether-à-go-go-related gene (hERG) potassium channel (human, UniProt Q12809); assay: primary screen, population patch clamp on CHO cells stably expressing hERG
Sequence (Q12809 whole entry, looked up): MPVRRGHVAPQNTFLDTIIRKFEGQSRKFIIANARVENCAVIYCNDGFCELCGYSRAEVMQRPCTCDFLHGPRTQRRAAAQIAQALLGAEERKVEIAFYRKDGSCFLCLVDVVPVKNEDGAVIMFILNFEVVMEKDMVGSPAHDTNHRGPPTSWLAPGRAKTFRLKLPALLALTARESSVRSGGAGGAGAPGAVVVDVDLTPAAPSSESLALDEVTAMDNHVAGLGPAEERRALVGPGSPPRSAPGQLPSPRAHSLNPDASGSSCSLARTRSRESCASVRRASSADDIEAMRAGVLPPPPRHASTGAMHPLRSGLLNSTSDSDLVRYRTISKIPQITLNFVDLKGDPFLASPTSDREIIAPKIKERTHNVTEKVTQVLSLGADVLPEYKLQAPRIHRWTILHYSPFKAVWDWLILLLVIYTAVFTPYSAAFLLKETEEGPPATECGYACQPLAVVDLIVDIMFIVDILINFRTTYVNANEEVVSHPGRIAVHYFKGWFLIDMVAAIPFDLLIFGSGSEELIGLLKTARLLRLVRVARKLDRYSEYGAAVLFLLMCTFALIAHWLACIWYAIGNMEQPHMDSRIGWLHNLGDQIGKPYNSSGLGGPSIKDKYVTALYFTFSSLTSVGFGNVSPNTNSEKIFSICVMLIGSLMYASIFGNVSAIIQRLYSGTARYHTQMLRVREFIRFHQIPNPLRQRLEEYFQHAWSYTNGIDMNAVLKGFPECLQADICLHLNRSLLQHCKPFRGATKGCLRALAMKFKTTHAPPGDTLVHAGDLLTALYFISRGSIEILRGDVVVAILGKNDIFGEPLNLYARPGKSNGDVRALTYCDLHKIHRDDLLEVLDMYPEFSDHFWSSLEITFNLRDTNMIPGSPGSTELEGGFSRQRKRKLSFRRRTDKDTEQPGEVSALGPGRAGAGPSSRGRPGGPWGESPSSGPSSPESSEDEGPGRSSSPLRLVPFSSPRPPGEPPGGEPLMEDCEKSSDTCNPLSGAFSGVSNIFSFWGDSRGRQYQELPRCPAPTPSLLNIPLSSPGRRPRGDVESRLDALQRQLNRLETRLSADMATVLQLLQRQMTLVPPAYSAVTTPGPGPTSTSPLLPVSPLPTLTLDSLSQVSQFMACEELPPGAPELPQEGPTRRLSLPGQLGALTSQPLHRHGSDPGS

Q: For `CN1CCN(CC(=O)Nc2ccc(OC(F)(F)F)cc2)CC1.Cl`, which “hERG current change (%, negative = inhibition) at 1uM” value is on record?
A: -31.3%

Q: How did the “hERG current change (%, negative = inhibition) at 1uM” value turn out when `COc1ccccc1NC(=O)CSc1nc(=O)n(CCN(C)C)c2c1CCCC2` was run?
A: -2.02%

Q: With `CCn1cc(/C=C(\NC(=O)c2ccccc2F)C(=O)N2CCOCC2)c2ccccc21` as the compound, how does the “hERG current change (%, negative = inhibition) at 1uM” value read?
A: 13.2%

Q: For `Cc1cc(C)nc(NS(=O)(=O)c2ccc(NC(=O)c3cc(=O)c4ccccc4o3)cc2)n1`, which “hERG current change (%, negative = inhibition) at 1uM” value is on record?
A: 13.4%

Q: `COc1ccc(/C=C2\SC(=S)N(CCC(=O)Nc3ccccc3C(=O)O)C2=O)cc1` was tested. Which “hERG current change (%, negative = inhibition) at 1uM” value did it give?
A: 8.31%

Q: Which “hERG current change (%, negative = inhibition) at 1uM” value does the source give for `Nc1c(C(=O)C2CC2)sc2nc(-c3ccccc3)cc(C(F)(F)F)c12` here?
A: 11%

Q: Which “hERG current change (%, negative = inhibition) at 1uM” value does the source give for `Nc1c(C(=O)N2CCCC2)sc2nc(-c3ccccc3)ccc12` here?
A: -17.8%

Q: `CCOC(=O)C1CCN(C(=O)COC(=O)C2CCN(S(=O)(=O)c3ccc4c(c3)OCCO4)CC2)CC1` was tested. Which “hERG current change (%, negative = inhibition) at 1uM” value did it give?
A: 14.6%

Q: Which “hERG current change (%, negative = inhibition) at 1uM” value does the source give for `C=CCSc1nnc(-c2cc(C(C)(C)C)nn2Cc2ccc(F)cc2)n1C` here?
A: 9.98%

Q: Which “hERG current change (%, negative = inhibition) at 1uM” value does the source give for `CN1CC(c2ccccc2)C2(COc3ccccc3C2=O)C12C(=O)Nc1ccccc12` (stereo not shown) here?
A: 0.344%

Q: For `CCSc1nnc(NC(=O)CSc2nc3c(c(=O)n2-c2ccccc2OC)SCC3)s1`, which “hERG current change (%, negative = inhibition) at 1uM” value is on record?
A: -16.9%

Q: How did the “hERG current change (%, negative = inhibition) at 1uM” value turn out when `Cc1cc(-n2c(C)cc(C(=O)COc3ccc([N+](=O)[O-])cc3)c2C)no1` was run?
A: -5.8%

Q: With `CCCCCCSc1cccc(-c2nc3cc(C)ccn3c2NC2CCCCC2)c1.O=C(O)C(F)(F)F` as the compound, how does the “hERG current change (%, negative = inhibition) at 1uM” value read?
A: 8.06%

Q: `CN(C(=O)c1ccnn1C)C1CCCN(Cc2ccccc2F)C1` (stereo not shown) was tested. Which “hERG current change (%, negative = inhibition) at 1uM” value did it give?
A: 24.1%

Q: For `CC(C)CCN1CCN(Cc2nc(-c3ccccc3)cs2)CC1CCO` (stereo not shown), which “hERG current change (%, negative = inhibition) at 1uM” value is on record?
A: -30.7%

Q: Which “hERG current change (%, negative = inhibition) at 1uM” value does the source give for `O=C(COc1coc(CN2CCc3ccccc3C2)cc1=O)Nc1ccc(F)cc1` here?
A: 10.4%

Q: How did the “hERG current change (%, negative = inhibition) at 1uM” value turn out when `COc1ccc(/C(O)=C(\C#N)c2nc3ccccc3n2C)cc1OC` was run?
A: 4.68%

Q: Which “hERG current change (%, negative = inhibition) at 1uM” value does the source give for `CCOc1ccc(NC(=O)CCS(=O)(=O)c2ccc3c(c2)CCCN3C(=O)CC)cc1` here?
A: 5.42%

Q: For `Cn1c2ccccc2c2cc(C(=O)N3CCN(CCO)CC3)sc21`, which “hERG current change (%, negative = inhibition) at 1uM” value is on record?
A: 12.5%

Q: How did the “hERG current change (%, negative = inhibition) at 1uM” value turn out when `Cc1cccc(OCCCN2CCOCC2)c1` was run?
A: 13.5%

Q: With `COC(=O)c1ccc(C(=O)OCCCc2nc3ccc(N)cc3[nH]2)cc1` as the compound, how does the “hERG current change (%, negative = inhibition) at 1uM” value read?
A: -1.34%

Q: How did the “hERG current change (%, negative = inhibition) at 1uM” value turn out when `Cc1cc(C)nc(Oc2ccc(Br)cc2Br)n1` was run?
A: 22%

Q: Which “hERG current change (%, negative = inhibition) at 1uM” value does the source give for `Cc1nc2ccc(NC(=O)NCCO)cc2s1` here?
A: 9.82%

Q: Which “hERG current change (%, negative = inhibition) at 1uM” value does the source give for `O=C(CSC1=NCCS1)NC(NC(=O)CSC1=NCCS1)c1ccccc1` here?
A: 16.7%

Q: Which “hERG current change (%, negative = inhibition) at 1uM” value does the source give for `COc1ccc(OC)c(C(=O)NC(CC(N)=O)c2ccc(N3CCN(c4ccc(F)cc4)CC3)c([N+](=O)[O-])c2)c1` (stereo not shown) here?
A: 15.5%

Q: Which “hERG current change (%, negative = inhibition) at 1uM” value does the source give for `O=C(CN1CCOCC1)Nc1ccccc1Sc1ccc(Cl)cc1` here?
A: 15.2%

Q: Which “hERG current change (%, negative = inhibition) at 1uM” value does the source give for `COc1ccc(CCN(C)C(=O)CCCN2C(=O)c3cccc4cccc(c34)C2=O)cc1OC` here?
A: -1.27%

Q: How did the “hERG current change (%, negative = inhibition) at 1uM” value turn out when `CCOC(=O)N1CCC(c2cc(=O)n3[nH]cc(C(=O)OC)c3n2)CC1` was run?
A: 13.7%

Q: How did the “hERG current change (%, negative = inhibition) at 1uM” value turn out when `CC1C(=O)N2CCCc3cc(NC(=O)COc4ccc(Cl)cc4)cc1c32` (stereo not shown) was run?
A: 1.91%

Q: Which “hERG current change (%, negative = inhibition) at 1uM” value does the source give for `COc1ccccc1CNc1ncccc1[N+](=O)[O-]` here?
A: 3.82%

Q: For `O=C(NC1CCCCC1)c1cc(-c2ccc(F)cc2)on1`, which “hERG current change (%, negative = inhibition) at 1uM” value is on record?
A: 16.8%

Q: With `O=C(Nc1nccs1)C1CCCN(S(=O)(=O)c2cccnc2)C1` (stereo not shown) as the compound, how does the “hERG current change (%, negative = inhibition) at 1uM” value read?
A: 12.6%

Q: How did the “hERG current change (%, negative = inhibition) at 1uM” value turn out when `COc1ccc(N2CC(NC(=O)NCC(C)C)CC2=O)cc1` (stereo not shown) was run?
A: 10.2%

Q: With `Fc1ccc(CSc2nnc(-c3cnccn3)n2Cc2ccco2)cc1` as the compound, how does the “hERG current change (%, negative = inhibition) at 1uM” value read?
A: -46.9%

Q: With `Cc1ccc(NC(=S)NNC(=S)Nc2cccc(C(F)(F)F)c2)cc1` as the compound, how does the “hERG current change (%, negative = inhibition) at 1uM” value read?
A: 15.4%

Q: How did the “hERG current change (%, negative = inhibition) at 1uM” value turn out when `CC[N+]1(CC(O)COC2CC(C)CC(C)(C)C2)CCOCC1.[I-]` (stereo not shown) was run?
A: 10.6%

Q: `Cn1c(=O)c2c(nc(CN3CCN(c4ccc(F)cc4)CC3)n2CCN2CCOCC2)n(C)c1=O` was tested. Which “hERG current change (%, negative = inhibition) at 1uM” value did it give?
A: -9.35%

Q: Which “hERG current change (%, negative = inhibition) at 1uM” value does the source give for `CCOc1ccc(N/C(SCc2cccc([N+](=O)[O-])c2)=C(/C#N)C(N)=O)cc1` here?
A: 5.83%

Q: With `CCOC(=O)N1CCN(c2ccccc2OC)CC1` as the compound, how does the “hERG current change (%, negative = inhibition) at 1uM” value read?
A: 13%

Q: How did the “hERG current change (%, negative = inhibition) at 1uM” value turn out when `COc1cccc(C(=O)NCCN2CCN(c3ccc(Cl)cc3)CC2)c1` was run?
A: 0.313%

Q: With `O=C(C1CC(=O)N(c2ccccc2)C1)N1CCN(C2=NS(=O)(=O)c3ccccc32)CC1` (stereo not shown) as the compound, how does the “hERG current change (%, negative = inhibition) at 1uM” value read?
A: 15.7%

Q: How did the “hERG current change (%, negative = inhibition) at 1uM” value turn out when `CN(C)S(=O)(=O)c1ccc(N2CCCC2)c(C(=O)Nc2nc(-c3ccc(F)cc3)cs2)c1` was run?
A: 11.9%

Q: How did the “hERG current change (%, negative = inhibition) at 1uM” value turn out when `N#Cc1ccc(OCC(O)CN2CCN(c3ncc(C(F)(F)F)cc3Cl)CC2)cc1` (stereo not shown) was run?
A: -81.4%

Q: Which “hERG current change (%, negative = inhibition) at 1uM” value does the source give for `CC(C)NC(=S)Nc1c(N)[nH]c(=O)[nH]c1=O` here?
A: 15.3%

Q: Which “hERG current change (%, negative = inhibition) at 1uM” value does the source give for `CCCCN(C)C(=O)Cc1c(OC)ccc2cc(Br)ccc12` here?
A: -2.37%

Q: How did the “hERG current change (%, negative = inhibition) at 1uM” value turn out when `COc1ccc(C(=O)NCCS(=O)(=O)NCc2cccnc2)cc1` was run?
A: 8.15%

Q: With `Cc1noc2ncnc(Oc3ccccc3)c12` as the compound, how does the “hERG current change (%, negative = inhibition) at 1uM” value read?
A: 5.41%

Q: How did the “hERG current change (%, negative = inhibition) at 1uM” value turn out when `Cc1ccc(Cn2nnc3c(=O)[nH]c(C4CCCN(C(=O)Nc5ccc(F)cc5F)C4)nc32)cc1` (stereo not shown) was run?
A: 13.8%

Q: With `Cc1[nH]c2ccccc2c1C(=O)C(C)OC(=O)c1ccc(Cl)nc1` (stereo not shown) as the compound, how does the “hERG current change (%, negative = inhibition) at 1uM” value read?
A: 8.91%

Q: `CCN(CC(=O)NCc1cccs1)c1ccc(S(=O)(=O)N2CCCC2)cn1` was tested. Which “hERG current change (%, negative = inhibition) at 1uM” value did it give?
A: -9.89%

Q: How did the “hERG current change (%, negative = inhibition) at 1uM” value turn out when `CN(C)S(=O)(=O)N1CCN(C(=O)c2ccccc2)CC1` was run?
A: 8.58%

Q: For `CCOC(=O)c1c(O)c(O)c(C(=O)OCC)n1-c1ccccc1`, which “hERG current change (%, negative = inhibition) at 1uM” value is on record?
A: 14.6%

Q: For `C=CCn1cnc2c(nnn2-c2cc(C)cc(C)c2)c1=O`, which “hERG current change (%, negative = inhibition) at 1uM” value is on record?
A: 5.82%

Q: How did the “hERG current change (%, negative = inhibition) at 1uM” value turn out when `CCOc1ccc(C2/C(=C(\O)c3ccc4c(c3)OCCO4)C(=O)C(=O)N2CCN2CCOCC2)cc1OCC` (stereo not shown) was run?
A: 6.82%

Q: With `Cc1cc(S(=O)(=O)Nc2ccc(C(=O)NCc3cccnc3)cc2)ccc1F` as the compound, how does the “hERG current change (%, negative = inhibition) at 1uM” value read?
A: 5.88%
